The source of these data is the supplement of paper PMC9446081.

Among all 39,000 compounds or so, about 220 (0.56%) showed activity. The list shows a part of the results.
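Note: static incubation at 37 °C against the wild-type strain, values averaged over two biological replicates.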

The subject of the assay is Escherichia coli K-12 BW25113. The assay is described as follows: relative growth (OD600 normalised to plate interquartile mean) (fraction); higher = less growth inhibition, active = 0.2 or less. Particulars: 50 µM; LB; incubation time: overnight (16-24 h).
Take `C[C@@H]1CCCCO[C@H](CN(C)C(=O)Nc2ccccc2)[C@H](C)CN([C@@H](C)CO)C(=O)c2cc(NC(=O)Nc3ccc(F)cc3)ccc2O1`: the relative growth is inactive: 1.03.
To `Cc1ccc(S(=O)(=O)Nc2cccc3c2O[C@@H](CN(C)C(=O)Nc2ccc(C(F)(F)F)cc2)[C@H](C)CN([C@@H](C)CO)C3=O)cc1` belongs inactive: 0.969.
To `O=C1C[C@@H](c2ccc(O[C@@H]3O[C@H](CO)[C@@H](O)[C@H](O)[C@H]3O)cc2)Oc2cc(O)ccc21` belongs inactive: 0.995; to `C[C@@H]1CCCCO[C@H](CN(C)Cc2ccncc2)[C@@H](C)CN([C@H](C)CO)C(=O)c2cc(NS(=O)(=O)c3ccc(Cl)cc3)ccc2O1`, inactive: 1.01.
With `COc1ccc(C#Cc2cnc3c(c2)C(=O)N([C@@H](C)CO)C[C@H](C)[C@H](CN(C)C(=O)CN(C)C)O3)cc1`, the relative growth was inactive: 1.
As for `COc1ccc(NC(=O)N(C)C[C@@H]2OCCCC[C@H](C)Oc3ccc(NC(=O)CCC(F)(F)F)cc3C(=O)N([C@H](C)CO)C[C@H]2C)cc1`, the figure is inactive: 0.754.
To `C[C@H](CO)N1C[C@H](C)[C@H](CN(C)S(=O)(=O)c2ccc(F)cc2)Oc2ccc(NS(=O)(=O)c3ccccc3)cc2C1=O` belongs inactive: 0.941; to `C[C@@H]1CN([C@H](C)CO)C(=O)c2cc(C#CC3(O)CCCC3)cnc2O[C@H]1CN(C)C(=O)Cc1ccccc1`, inactive: 1.02.
As for `C[C@H]1CN([C@@H](C)CO)C(=O)c2cc(C#CCc3ccccc3)cnc2O[C@@H]1CN(C)C(=O)C1CCOCC1`, the relative growth was inactive: 1.03.
As for `O=c1c(-c2ccc(O)cc2)coc2c([C@H]3O[C@H](CO)[C@@H](O)[C@H](O)[C@H]3O)c(O)ccc12`, the figure is inactive: 0.996; as for `C[C@@H]1CCCCO[C@H](CN(C)C)[C@@H](C)CN([C@H](C)CO)C(=O)c2cc(NC(=O)Nc3cccc4ccccc34)ccc2O1`, inactive: 0.99; as for `Cc1noc(C)c1NC(=O)Nc1ccc2c(c1)C(=O)N([C@@H](C)CO)C[C@H](C)[C@H](CN(C)Cc1ccc(-c3ccccc3)cc1)O2`, inactive: 1.01.
To `C[C@@H]1CCCCO[C@H](CN(C)S(=O)(=O)c2ccc(Cl)cc2)[C@H](C)CN([C@@H](C)CO)C(=O)c2cc(NS(=O)(=O)c3ccc(F)cc3)ccc2O1` belongs inactive: 1; to `COC(=O)C1=C(C)NC(C)=C(C(=O)OC)C1`, inactive: 1.
For `O=S(=O)(N1CCOCC1)N1CCCN(S(=O)(=O)N2CCOCC2)CC1`, the relative growth was inactive: 0.988.
`C[C@@H]1CN([C@H](C)CO)C(=O)Cc2cc(NS(=O)(=O)c3cn(C)cn3)ccc2O[C@@H]1CN(C)CC1CC1`: the relative growth was inactive: 0.985.
In the case of `C[C@@H]1CCCCO[C@H](CN(C)C(=O)Nc2ccc(F)cc2)[C@@H](C)CN([C@@H](C)CO)C(=O)c2cc(NC(=O)CCC(F)(F)F)ccc2O1`, the relative growth was inactive: 0.965.
As for `COc1ccc(C(=O)NCC#N)cc1`, the relative growth was inactive: 1.03.
To `COc1cc(C(=O)OCCN2CCCN(CCOC(=O)c3cc(OC)c(OC)c(OC)c3)CC2)cc(OC)c1OC` belongs inactive: 0.983; to `C[C@@H]1CCCCO[C@H](CN(C)CC2CC2)[C@H](C)CN([C@@H](C)CO)C(=O)c2cc(NS(=O)(=O)c3cn(C)cn3)ccc2O1`, inactive: 1; to `C[C@@H]1CN([C@@H](C)CO)C(=O)c2cc(NC(=O)NC3CCCCC3)ccc2O[C@@H](C)CCCCO[C@@H]1CN(C)S(=O)(=O)c1ccc(F)cc1`, inactive: 1.03.
Take `C[C@@H]1CN([C@@H](C)CO)C(=O)c2cc(NC(=O)Nc3ccc(F)cc3)ccc2O[C@@H](C)CCCCO[C@H]1CN(C)S(=O)(=O)c1ccccc1`: the relative growth is inactive: 1.05.
To `C[C@@H]1CN([C@@H](C)CO)S(=O)(=O)c2ccc(-c3cccnc3)cc2O[C@@H]1CN(C)C(=O)c1ccc2c(c1)OCO2` belongs inactive: 1.02; to `O=C(O)c1n[nH]c2c1C[C@H]1C[C@@H]21`, inactive: 0.977.
To `C[C@H]1CN([C@@H](C)CO)C(=O)c2cc(C3=CCCC3)cnc2O[C@H]1CN(C)S(=O)(=O)c1cn(C)cn1` belongs inactive: 1.03; to `C[C@@H]1CCCCO[C@@H](CN(C)Cc2ccc3c(c2)OCO3)[C@H](C)CN([C@H](C)CO)C(=O)c2cc(NC(=O)NC3CCCCC3)ccc2O1`, inactive: 1.02; to `C[C@@H]1CN([C@@H](C)CO)C(=O)c2c(c3ccccc3n2C)-c2ccccc2CO[C@@H]1CN(C)S(C)(=O)=O`, inactive: 0.976.
To `C[C@@H]1CCCCO[C@@H](CN(C)C(=O)NC2CCCCC2)[C@H](C)CN([C@@H](C)CO)C(=O)c2cc(NS(=O)(=O)c3ccccc3)ccc2O1` belongs inactive: 1.01.
As for `COCCNC(=O)C[C@@H]1C[C@@H]2c3cc(NC(=O)COC)ccc3O[C@@H]2[C@@H](CO)O1`, the relative growth was inactive: 0.924.
To `C[C@@H]1CCCCO[C@@H](CN(C)S(C)(=O)=O)[C@@H](C)CN([C@H](C)CO)C(=O)c2cc(NS(=O)(=O)c3ccccc3)ccc2O1` belongs inactive: 0.988; to `CNC[C@H]1OCCCC[C@@H](C)Oc2ccc(NC(=O)c3ccncc3)cc2C(=O)N([C@@H](C)CO)C[C@H]1C`, inactive: 1.01; to `C[C@@H]1CN([C@@H](C)CO)C(=O)c2cc(NS(=O)(=O)c3cccs3)ccc2O[C@@H]1CN(C)Cc1ccc(Cl)c(Cl)c1`, inactive: 0.978.
To `CN1CCN(C(c2ccccc2)c2ccccc2)CC1` belongs inactive: 1.13.
`C[C@@H]1CN([C@H](C)CO)C(=O)c2cccc(NC(=O)C3CC3)c2O[C@H]1CN(C)S(=O)(=O)c1cn(C)cn1`: the relative growth was inactive: 1.01.
To `CC(C)NC(=O)N(C)C[C@@H]1OCCCC[C@H](C)Oc2ccc(NC(=O)Nc3cccc4ccccc34)cc2C(=O)N([C@@H](C)CO)C[C@H]1C` belongs inactive: 0.988; to `COc1ccc(S(=O)(=O)N[C@H]2CC[C@H](CC(=O)N3CCN(c4ccccc4)CC3)O[C@@H]2CO)cc1`, inactive: 0.997; to `CC[C@@H](N)Cn1c(=O)oc2ccccc21`, inactive: 0.932.
To `C[C@H]1CN([C@@H](C)CO)C(=O)Cc2cc(NS(=O)(=O)c3cn(C)cn3)ccc2O[C@@H]1CN(C)Cc1ccc(C(=O)Nc2ccccc2N)cc1` belongs inactive: 1.03.
For the compound `COc1ccc(S(=O)(=O)N(C)C[C@@H]2Oc3c(NC(=O)C4CCOCC4)cccc3C(=O)N([C@H](C)CO)C[C@@H]2C)cc1`, the relative growth is inactive: 0.951.
In the case of `COc1ccc(S(=O)(=O)N(C)C[C@@H]2OCCCC[C@H](C)Oc3ccc(NC(=O)Nc4ccc(F)cc4)cc3C(=O)N([C@@H](C)CO)C[C@H]2C)cc1`, the relative growth is inactive: 1.01.
To `Cc1cc(=S)oc2ccccc12` belongs inactive: 0.943; to `CO[C@H]1CN(C)C(=O)c2ccc(NC(=O)c3ccc(F)cc3)cc2OC[C@@H](C)N(C(=O)CN(C)C)C[C@H]1C`, inactive: 0.949.
Turning to `Cc1noc(C)c1S(=O)(=O)Nc1cccc2c1O[C@@H](CN(C)CC1CC1)[C@@H](C)CN([C@H](C)CO)C2=O`, the relative growth was inactive: 1.02.
As for `COCCNC(=O)C[C@H]1C[C@H]2c3cc(NS(C)(=O)=O)ccc3O[C@H]2[C@H](CO)O1`, the figure is inactive: 1.01; as for `CN(CC(=O)O)C(=N)N`, inactive: 1.01; as for `CO[C@@H]1CN(C)C(=O)c2cc(NS(=O)(=O)c3cn(C)cn3)ccc2OC[C@@H](C)N(CC2CC2)C[C@H]1C`, inactive: 0.994.
To `O=C1CO[C@@H](c2ccccc2)CN1` belongs inactive: 1.01; to `COc1ccc(CN(C)C[C@H]2OCCCC[C@H](C)Oc3ccc(NS(=O)(=O)c4cccs4)cc3C(=O)N([C@H](C)CO)C[C@H]2C)cc1`, inactive: 0.997; to `C[C@H]1CN([C@@H](C)CO)C(=O)Cc2cc(NC(=O)Nc3ccc(C(F)(F)F)cc3)ccc2O[C@H]1CN(C)Cc1ccc(C(F)(F)F)cc1`, inactive: 1.02.
As for `C[C@@H]1CCCCO[C@@H](CN(C)S(=O)(=O)c2ccc(Cl)cc2)[C@H](C)CN([C@H](C)CO)C(=O)c2cc(NC(=O)Nc3ccc(C(F)(F)F)cc3)ccc2O1`, the figure is inactive: 1.03; as for `C[C@@H]1CCCCO[C@@H](CN(C)C(=O)c2ccccc2)[C@@H](C)CN([C@@H](C)CO)C(=O)c2cc(NC(=O)NC3CCCCC3)ccc2O1`, inactive: 0.995; as for `C[C@H]1CCCCO[C@H](CN(C)Cc2ccc3c(c2)OCO3)[C@@H](C)CN([C@@H](C)CO)C(=O)c2cc(NC(=O)Nc3ccccc3)ccc2O1`, inactive: 1.03.
`C[C@@H]1CN([C@H](C)CO)C(=O)c2cc(NC(=O)Nc3cccc4ccccc34)ccc2O[C@@H](C)CCCCO[C@H]1CN(C)C`: the relative growth is inactive: 1.02.
To `C[C@@H]1CN([C@@H](C)CO)C(=O)c2cc(NC(=O)Nc3ccc(C(F)(F)F)cc3)ccc2O[C@@H](C)CCCCO[C@@H]1CN(C)C(=O)CCCN(C)C` belongs inactive: 0.946; to `C[C@H]1CCCCO[C@@H](CN(C)C(=O)Nc2ccc(C(F)(F)F)cc2)[C@@H](C)CN([C@@H](C)CO)C(=O)c2cc(NC(=O)Nc3ccc4c(c3)OCO4)ccc2O1`, inactive: 0.993; to `C[C@H](CO)N1C[C@H](C)[C@H](CN(C)Cc2ccc(Oc3ccccc3)cc2)Oc2c(NS(=O)(=O)c3ccc(Cl)cc3)cccc2C1=O`, inactive: 1.03.
As for `C[C@H]1CN([C@@H](C)CO)C(=O)Cc2cc(NC(=O)Nc3cc(Cl)cc(Cl)c3)ccc2O[C@H]1CN(C)S(=O)(=O)c1ccc(Cl)cc1`, the figure is inactive: 1.01; as for `C[C@H](CO)N1C[C@H](C)[C@@H](CN(C)C(=O)Nc2ccc3c(c2)OCO3)OCCCC[C@H](C)Oc2ccc(NS(=O)(=O)c3ccccc3)cc2C1=O`, inactive: 1.06; as for `COc1ccc(CN(C)C[C@@H]2OCCCC[C@H](C)Oc3ccc(NS(=O)(=O)c4cccs4)cc3C(=O)N([C@H](C)CO)C[C@@H]2C)cc1`, inactive: 1.01.
